Data from PubChem BioAssay AID1508624 (National Center for Advancing Translational Sciences (NCATS), 2021).
Screen size: about 48,000 compounds; about 120 (0.25%) were called active. About 4% were inconclusive and are not listed. The call rests on the fitted dose curve; in most records, active means well fitted activation curve with a large enough effect; inconclusive means small, poorly fitted or top-dose-only effect, or another doubt; inactive means no such curve, though single readings can be large or run the other way. Some of the results follow.

Assay: Primary qHTS for Identification of Small Molecule Activators of Huntingtin-Antisense Promoter Activity; further: nearly all actives have a fitted effect of over 55% in size
Settings: HEK293 HTT-AS promoter firefly luciferase reporter, 24 h; series mostly up to 57.5 µM; activity change, positive = activation: at the top concentration
Method in brief: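 Firefly luciferase readout (Dual-Glo, 10 min RT) after 24 h, 37 °C compound exposure (final up to 57.5 uM) of HEK293 reporter cells cultured 24 h beforehand; PTC124 at 50 uM final as control inhibitor; activity scaled vehicle 0%, zero RLU -100%.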

Activity change, positive = activation, inactive:
CCc1cccc(NC(=O)c2ccc3c(c2)N(Cc2cccc(Cl)c2)C(=O)c2ccccc2S3=O)c1 (configuration not stated) -6.52%
CCOC(=O)c1c(-c2ccc(C)cc2)csc1NC(=O)c1cc(-c2ccc(OC)cc2)on1 -4.76%
Cc1cccc(N(C)C(=O)CCS(=O)(=O)c2ccc3c(c2)n(C)c(=O)c(=O)n3C)c1 -2.44%
COc1cc(NC(=O)Cn2c(=O)n(Cc3ccco3)c(=O)c3sc4ccccc4c32)cc(OC)c1 1.68%
CCN(CC)C(=O)c1sc2c(c1C)c(=O)n(-c1ccc(Cl)c(Cl)c1)c(=O)n2Cc1ccccc1C#N -25.5%
COCCCNc1oc(/C=C/c2cc(OC)c(OC)c(OC)c2)nc1C#N -2.85%
Cc1ccc(N2CCN(C(=O)c3c(C)oc4ncn(CC(C)C)c(=O)c34)CC2)c(C)c1 -5.61%
Cc1cccc(NC(=O)CSc2ncc3c(n2)-c2ccccc2N(Cc2ccc(F)cc2)S3(=O)=O)c1C -6.34%
Cc1ccc(C)c(N2CCN(C(=O)C3CCN(c4nc5ccc(C)cc5[nH]4)CC3)CC2)c1 -30.5%
Cc1cccc(CCNC(=O)c2ccc3c(c2)N(Cc2ccccc2F)C(=O)c2ccccc2S3)c1 -17.7%
Cc1cc(-c2ccc(C)c(S(=O)(=O)N3CCN(c4cccc(C(F)(F)F)c4)CC3)c2)on1 -21.7%
CN(C)c1ccc(-c2nc(-c3cc4cc(Cl)ccc4oc3=O)cs2)cc1 -1.88%
CCc1cccc(NC(=O)CCC(=O)N2CCSc3ccccc32)c1 -18.1%
Cc1ccc(Oc2c(C(F)(F)F)oc3c(CN4CCC(C)CC4)c(O)ccc3c2=O)cc1 -9.12%
COc1ccc(-n2c(=O)c3c(c4cc(OC)ccc4n3C)n(Cc3cccc(OC)c3)c2=O)cc1 -9.18%
O=C(CCC1N=C2c3ccccc3N=C(SCc3ccc(F)cc3)N2C1=O)NCc1ccc(F)cc1 (configuration not stated) -20.4%
O=C(CCc1nc(CN2CCN(S(=O)(=O)c3ccc(Cl)cc3)CC2)no1)N1CCCCC1 -10.7%
CCc1cccc(C)c1NC(=O)Cn1ccn(-c2cccc(OC)c2)c(=O)c1=O -2.06%
Cc1cccc(Cn2c(SCc3ccc(C(=O)NCCc4ccccc4)cc3)nc3ccncc32)c1 -14.7%
Fc1cccc(-n2ncc3c2ncn2nc(COc4ccc(Cl)cc4)nc32)c1 -3.71%
CCCC1=Nc2cc(C(=O)NCc3ccc(OC)cc3)ccc2Sc2ccc(C)cc21 -26.3%
Cc1nc2scc(C)n2c(=O)c1S(=O)(=O)Nc1ccc(N2CCOCC2)c(Cl)c1 -43.8%
CCC(C(=O)Nc1cc(OC)cc(OC)c1)n1nc(-c2ccc(C)c(C)c2)ccc1=O (configuration not stated) -28.5%
CCOc1ccc(C(=O)NCCn2cc(SCC(=O)Nc3ccc4c(c3)OCCO4)c3ccccc32)cc1 -38.3%
CCOc1ccc(-c2nc(CSCC(=O)N3CCN(c4ccc(F)cc4)CC3)c(C)o2)cc1 -6%
C1CCN2C[C@@H]3C[C@@H](CN4CCCC[C@@H]34)[C@H]2C1 -1.02%
CN1CCc2c(sc3c2C(=O)NC(c2ccc(OC(=O)c4ccc(C(C)(C)C)cc4)cc2)N3)C1 (configuration not stated) -73.4%
O=C(NCCc1c[nH]c2ccccc12)c1cccnc1 19.9%
O=C(CSc1nnc(-c2ccccc2)o1)c1cccc([N+](=O)[O-])c1 -10.3%
CCN(CC)CCCNC(=O)c1ccc(-c2nc(CN3CCc4ccccc43)c(C)o2)cc1 -16.6%
COC(=O)c1cc(S(=O)(=O)N2CCN(c3cccc(C)c3)C(C)C2)cn1C (configuration not stated) 0.515%
O=C(Cn1ncc2c3ccccc3n(Cc3ccc(Cl)cc3)c2c1=O)NCc1ccccn1 -4.49%
CCN(CC)CCCNC(=O)c1ccc2c(=O)n(CCc3ccccc3)c(=O)[nH]c2c1 0.672%
CCc1ccc(-n2cnc3cc(C(=O)NCc4ccc(C)cc4)ccc32)cc1 -43%
CCOc1ccc(C(=O)Nc2ccc3nc(SCCOc4ccccc4)sc3c2)cc1 -9.66%
CCOC(=O)c1c(C)[nH]c(CCC(=O)NCc2ccc(CC)cc2)c1C -24%
CC(=O)c1cccc(NC(=O)Cn2nc(C)n3cccc3c2=O)c1 -17.7%
CC(=O)N1CCCc2cc(S(=O)(=O)N3CCC(C(=O)Nc4cccc(Cl)c4C)CC3)ccc21 -18.3%
CCN(CC)C(=O)c1c(-c2ccccc2)c(-c2ccccc2)nn(C)c1=O -10.6%
CCc1ccc(C(=O)c2cn(CC(=O)Nc3cc(C)ccc3C)c3nc(C)ccc3c2=O)cc1 -12%
O=C(CSc1nnc(-c2cccs2)o1)Oc1ccccc1 -3.86%
CCOC(CN1C(=O)[C@](CC(=O)Nc2ccc(C)cc2)(NC(=O)Nc2ccc(C)cc2)c2ccccc21)OCC -24.6%
COc1ccc(N2CCN(C(=O)CCn3nc(C)c(S(=O)(=O)N4CCCC4)c3C)CC2)cc1 -17.5%
Cc1ccc(C2c3[nH]c4ccccc4c3CCN2C(=O)c2cccc(C)c2)cc1 (configuration not stated) -31.4%
CC(C)Nc1ccc(-c2nc(-c3ccco3)no2)cc1[N+](=O)[O-] 28.7%
CCOCCCNC(=O)C(c1ccc(C)cc1)N(Cc1ccc2c(c1)OCO2)C(=O)c1ccc(NC(C)=O)cc1 (configuration not stated) 1.29%
Cc1ccc2nc(N3CCC(C(=O)N4CCN(c5cccc(Cl)c5)CC4)CC3)[nH]c2c1 -28.6%
CCC(C)NC(=O)c1ccccc1NC(=O)CN1C(=O)c2cccc3cccc1c23 (configuration not stated) -15.9%
COc1cc(C(=O)NCC(c2cccs2)S(=O)(=O)c2ccc(F)cc2)cc(OC)c1OC (configuration not stated) -27.2%
CCOC(=O)c1c(C)[nH]c(CCC(=O)Nc2ccc(C)c(F)c2)c1C -20.6%
CC(C)NC(=O)CN1C(=O)COc2ccc(S(=O)(=O)N3CCCCCC3)cc21 -14.4%
Cc1cccc(OCC(=O)Nc2ccc(Cl)c(-c3nc4ncccc4o3)c2)c1C -21.5%
CC1CC(OC(=O)C(O)c2ccccc2)CC(C)(C)N1C (configuration not stated) 1.05%
Cc1cccc(NC(=O)c2nnn(CC(=O)Nc3ccc(C(C)C)cc3)c2N)c1C -2.66%
CCC(Sc1nc2cc(OC)c(OC)cc2c2nc(-c3ccccc3)nn12)C(=O)Nc1cccc(C)c1 (configuration not stated) -0.73%
COc1ccc(NC(=O)C2=C(C)Nc3nc(SCc4ccccc4C)nn3C2c2cc(OC)c(O)c(OC)c2)cc1 (configuration not stated) -8%
Cc1ccc(-n2ncc(C(=O)NCc3cccs3)c2C2CCN(C(=O)OC(C)(C)C)CC2)c(C)c1 -18.3%
Cc1ccc(CSc2nnc(CCNC(=O)OC(C)(C)C)o2)cc1 -16.7%
COc1ccc(OC)c(NC(=O)CSc2nnc3ccc4ccccc4n23)c1 -0.385%
O=C(NCc1ccccc1Cl)c1ccc(CSCc2ccccc2Cl)o1 -4.91%
CCc1ccc(NC(=O)CCn2nc(-c3ccccc3OC)c3c(C)cc(C)nc32)cc1 -20.6%
COc1ccc(-c2noc(CC(=O)Nc3ccc(F)cc3F)n2)cc1 -25%
Cc1ccc(-c2nnc(Nc3cccc(O)c3)c3ccccc23)cc1S(=O)(=O)N1CCOCC1 13.7% [at 11.5 µM, percent change from vehicle, -100% = no light]
CCC(C(=O)NCc1ccccc1)n1nc(C)c2sc3ccccc3c2c1=O (configuration not stated) -14.8%
COc1ccc(NC(=O)CCn2c(=O)c3cccn3c3cccnc32)c(OC)c1 -7.15%
CN(Cc1ccccc1)C(=O)Nc1ccc2c(c1)N(C)C(=O)c1ccccc1S2 -18.3%
CCc1ccc(CN(Cc2ccco2)c2cnc(S(C)(=O)=O)nc2C(=O)Nc2ccccc2Cl)cc1 -25.1%
COC(=O)c1scc(-c2ccc(C)cc2)c1S(=O)(=O)N1CCN(c2cccc(OC)c2)CC1 -23.5%
Fc1ccc(Nc2c3c(nc4ccccc24)CCC3)cc1 -38.1%
CCc1nnc(SC(CC)C(=O)Nc2cccc(OC)c2)c2cc3oc(C)cc3n12 (configuration not stated) -23.5%
Cc1ccc(Sc2c(C)nn(C(C)(C)C)c2OC(=O)C(C)(C)C)cc1 9.86%
O=C(NCc1ccco1)c1ccc2c(c1)N(Cc1ccc(Cl)cc1)C(=O)c1ccccc1S2=O (configuration not stated) -38.8%
CCOC(=O)c1ccc(NC(=O)CC2C(=O)OCCN2CC)cc1 (configuration not stated) -7.43%
CCN(C(=O)C1CCCN(S(=O)(=O)c2c(C)noc2/C=C/N(C)C)C1)c1cccc(C)c1 (configuration not stated) -28.9%
CCN(c1ccccc1)c1nnc(NC(=O)Nc2ccccc2F)s1 -30.1%
CCC(=O)N1CCc2cc(Br)cc(S(=O)(=O)CCC(=O)NCc3ccc(Cl)cc3)c21 -1.58%
Cc1nc(Oc2ccc(F)cc2Cl)c2oc3ccccc3c2n1 -33.4%
CCOc1ccccc1NC(=O)CN(C)S(=O)(=O)c1ccc2nc(C)sc2c1 -15.1%
Cc1ccc(CNC(=O)CC(C)S(=O)(=O)c2cc3c(cc2C)NC(=O)CO3)cc1 (configuration not stated) -9.48%
CSC1=NC2(CCN(C(=O)NC3CCCCC3)CC2)N=C1c1ccc(C)c(C)c1 -7.28%
Cc1ccc(NC(=O)CCc2nnc3n(C)c(=O)c4sccc4n23)cc1C -3.57%
Cc1ccc(C)c(NC(=O)CN2C(=O)C(C)(C)c3ccccc32)c1 -4.97%
COc1ccc(Br)cc1CNC(=O)c1cc2n(n1)CCCN(Cc1ccc(C)cc1)C2=O -7.13%
O=C(Nc1sc2c(c1C(=O)NCc1ccco1)CCCC2)c1cc(=O)c2ccccc2o1 2.79%
COc1ccc(N2CCN(C(=O)c3nc(SC)ncc3Cl)CC2)cc1 3.04%
CC1=C(c2ccc(C)c(C)c2)S(=O)(=O)N=C1N1CCC(C(=O)NCc2ccc(C)o2)CC1 -15.2%
Cc1ccccc1OCCn1c(CCNC(=O)C(C)(C)C)nc2ccccc21 -12.4%
CC(C)(C)OC(=O)N1CCC(c2c(C(=O)N3CCc4ccccc4C3)cnn2-c2ccc(F)cc2)CC1 -6.5%
COc1ccc(C(C)C)cc1S(=O)(=O)NCCc1c(C)[nH]c2ccc(C)cc12 -35.4%
CCOc1ccc(-c2nc(C#N)c(NCCCOC)o2)cc1 -9.78%
CC(NC(=O)CCCn1c(=O)c2cccn2c2cccnc21)c1ccccc1 (configuration not stated) -6.71%
Cc1coc2c(C)c3oc(=O)c(CCC(=O)NCCc4ccc(Cl)cc4)c(C)c3cc12 -3.71%
